# From PMC4336329 (PLoS ONE, 2015)
# Out of some 310,000 compounds screened, about 2,200 (0.71%) showed an effect of 50% or more. The effect is printed as a negative number. Some of the results follow.
# Biological target: human ether-à-go-go-related gene (hERG) potassium channel (human, UniProt Q12809)
# Assay: primary screen, population patch clamp on CHO cells stably expressing hERG
# human ether-à-go-go-related gene (hERG) potassium channel, sequence (Q12809 whole entry, looked up): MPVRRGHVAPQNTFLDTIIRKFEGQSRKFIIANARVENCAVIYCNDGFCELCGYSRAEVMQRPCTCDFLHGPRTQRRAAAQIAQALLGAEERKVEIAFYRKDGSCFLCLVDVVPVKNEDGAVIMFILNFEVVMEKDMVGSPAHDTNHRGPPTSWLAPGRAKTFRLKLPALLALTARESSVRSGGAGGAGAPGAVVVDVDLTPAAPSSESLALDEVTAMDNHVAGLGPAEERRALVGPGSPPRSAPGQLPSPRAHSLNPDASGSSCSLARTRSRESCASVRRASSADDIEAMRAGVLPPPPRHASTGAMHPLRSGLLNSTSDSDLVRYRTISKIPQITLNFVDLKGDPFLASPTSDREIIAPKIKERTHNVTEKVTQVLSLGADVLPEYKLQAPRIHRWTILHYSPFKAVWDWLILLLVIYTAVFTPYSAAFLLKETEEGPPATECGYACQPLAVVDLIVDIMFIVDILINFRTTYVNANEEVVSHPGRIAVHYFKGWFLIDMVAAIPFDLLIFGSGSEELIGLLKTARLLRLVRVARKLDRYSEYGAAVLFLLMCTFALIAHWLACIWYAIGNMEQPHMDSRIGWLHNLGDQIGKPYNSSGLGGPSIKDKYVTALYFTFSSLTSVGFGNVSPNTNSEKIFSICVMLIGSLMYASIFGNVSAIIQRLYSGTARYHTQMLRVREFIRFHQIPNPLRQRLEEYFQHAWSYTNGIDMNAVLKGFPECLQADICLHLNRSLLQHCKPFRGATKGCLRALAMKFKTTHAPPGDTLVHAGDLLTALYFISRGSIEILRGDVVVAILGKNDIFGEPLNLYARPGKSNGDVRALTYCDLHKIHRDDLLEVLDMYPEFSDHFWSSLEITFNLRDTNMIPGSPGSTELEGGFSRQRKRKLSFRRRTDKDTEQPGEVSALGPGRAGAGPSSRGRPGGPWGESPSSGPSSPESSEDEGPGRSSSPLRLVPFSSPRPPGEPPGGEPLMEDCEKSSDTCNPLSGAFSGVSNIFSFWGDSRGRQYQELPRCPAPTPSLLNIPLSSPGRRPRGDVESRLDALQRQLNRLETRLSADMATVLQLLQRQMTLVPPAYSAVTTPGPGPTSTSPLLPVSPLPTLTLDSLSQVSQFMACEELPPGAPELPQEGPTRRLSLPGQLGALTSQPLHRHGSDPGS
row,Compound,"hERG current change (%, negative = inhibition) at 1uM [%]"
1,CCCCN(C(=O)Cc1cccc(F)c1)c1c(N)n(CCC)c(=O)[nH]c1=O,6.3
2,COc1ccc(N2C(=O)NC(=O)/C(=C/c3ccc(N4CCOCC4)cc3)C2=O)cc1,6.36
3,O=Cc1c(N2CCCCCC2)nc2ccccn2c1=O,6.87
4,CCc1ccc(C2C(C#N)=C(N)SC(N)=C2C#N)cc1,12.3
5,CCN1CCN(S(=O)(=O)c2ccc(C(=O)Nc3sc4c(c3C(N)=O)CCN(CC)C4)cc2)CC1,6.86
6,O=C(CN1CCN(c2ccccn2)CC1)N(c1ccccc1)c1ccc2ccccc2c1,6.26
7,Cc1ccc(S(=O)(=O)NNC(=O)c2sc(NS(=O)(=O)c3ccccc3)nc2C)cc1,4.35
8,O=c1cc(-c2ccc(F)cc2)oc2ccccc12,3.52
9,COCCNC(=O)CN(c1cc(C(F)(F)F)ccc1Cl)S(C)(=O)=O,10.9
10,O=[N+]([O-])c1ccc(-[n+]2c(-c3ccccc3)cc(-c3ccccc3)cc2-c2ccccc2)cc1.[O-][Cl+3]([O-])([O-])[O-],14.7
11,O=c1cc(O)n(-c2ccc(Cl)cc2)c(=S)[nH]1,5.55
12,CCOc1ccc(S(=O)(=O)NCc2ccccn2)c(C)c1C,12.1
13,O=[N+]([O-])c1cccc(S(=O)(=O)N/N=C/c2ccc(O)cc2)c1,7.51
14,Cn1ccnc1Sc1ccc(C(N)=O)cc1[N+](=O)[O-],13.1
15,COCCCNS(=O)(=O)c1cc2c3c(c1)C(C)C(=O)N3CCC2 (stereo not drawn),21.7
16,CN(C)CCN(C(=O)c1ccc(S(=O)(=O)N(C)c2ccccc2)cc1)c1nc2cc3c(cc2s1)OCCO3.Cl,11.4
17,O=C(COc1coc(CN2CCCc3ccccc32)cc1=O)Nc1ccccc1,-6.51
18,Cc1ccc(C(=O)Nn2cnc3ccccc3c2=O)cc1C,4.05
19,O=C(NC(=S)NC1CCSC1=O)c1ccccc1F (stereo not drawn),12.6
20,Cn1c(CCN2CCOCC2)nc2cc(NC(=O)COc3ccc([N+](=O)[O-])cc3)ccc21,17.1
21,CC(OC(=O)c1cccc(-n2cnnn2)c1)C(=O)c1ccccc1 (stereo not drawn),-3.7
22,O=C(NC(=S)Nc1ccc(S(=O)(=O)Nc2nccs2)cc1)c1cccc(F)c1,4.03
23,Cc1cc(Br)cc(C)c1OCC(=O)NNC(=O)CCC(=O)NCc1ccccc1,17.5

row,Compound,"hERG current change (%, negative = inhibition) at 1uM [%]"
1,CCN1CCSc2ccc(C(=O)NCc3cccc(Br)c3)cc21,10.6
2,COc1ccc(C[C@@H]2c3cc(O)c(OC)cc3CCN2C)cc1O.[O-][Cl+3]([O-])([O-])O,9.5
3,COc1ccc(-n2cnnc2SCC(=O)Nc2cc(C(C)(C)C)nn2-c2ccccc2)cc1,-1.54
4,CS(=O)(=O)N1CCN(c2ccccc2NC(=O)c2cc(Br)ccc2Cl)CC1,-1.64
5,Cc1ccc(CCN2CC(C(=O)N3CCN(c4ccc(F)cc4)CC3)CC2=O)cc1 (stereo not drawn),-42
6,CCOC(=O)C(C)N(c1ccccc1Cl)S(C)(=O)=O (stereo not drawn),1.57
7,CCOC(=O)c1ccc(Oc2ccc(C(F)(F)F)cn2)cc1,5.32
8,O=C(Nc1nnc(Cc2ccccc2)s1)Nc1ccccc1F,9.12
9,COC(=O)c1ccc(COc2nc(C)cc(C)c2C#N)o1,-6.61
10,Cc1cnc(C(=O)OCC(=O)c2ccc(-c3ccccc3)cc2)cn1,7.97
11,COc1ccc2nc3c(c(-c4ccccc4)c2c1)CCC3,9.81
12,Cc1ccc(NC(=S)NCc2cccnc2)cc1,-2.58
13,CCOP(=O)(Cc1ccccc1)OCC,10.5
14,COc1cccc(CNC(=O)c2ccccc2N)c1,-4.47
15,Cc1ccc(S(=O)(=O)N2CCN(C(=O)C(C)Cn3cncn3)CC2)cc1 (stereo not drawn),7.75
16,COc1ccc(-c2nnc3sc(CCN4C(=O)c5ccccc5C4=O)nn23)cc1,3.55
17,CN(C)c1ccc(/C=N/NC(=O)C(=O)N2CCCCCC2)cc1,19.4
18,O=C(COC(=O)c1cc(Br)ccc1Cl)NC1CCCC1,10.2
19,CC(C)NC(=O)COc1ccc(OCc2ccccc2)cc1,13.9
20,CC1CCN(C(=O)COC(=O)COc2ccccc2C#N)CC1,7.69
21,COc1cccc(NC(=O)c2ccc3c(c2)N(C)CCS3)c1,1.72
22,CN(C[C@H](Cc1ccccc1)N(C[C@H](Cc1ccccc1)N(CC1(c2ccccc2)CC1)N=O)N=O)N=O.[Na+],13.6
